Data from the supplement of paper PMC12217912.
The list shows a part of the results. Sequences were assembled here from the parent chain. Inactive controls read about 0.05.

B1: TEV protease; numbered along this chain (parent)
chain: MGESLFKGPRDYNPISSSICHLTNESDGHTTSLYGIGFGPFIITNKHLFRRNNGTLVVQSLHGVFKVKDTTTLQQHLVDGRDMIIIRMPKDFPPFPQKLKFREPQREERICLVTTNFQTKSMSSMVSDTSCTFPSGDGIFWKHWIQTKDGQCGSPLVSTRDGFIVGIHSASNFTNTNNYFTSVPKNFMELLTNQEAQQWVSGWRLNADSVLWGGHKVFMVKPEEPFQPVKEATQL

Variants of: B1
Experiment: raw area under fraction-flipped curve 0-4 h after induction (AUC4h, not background-subtracted), DNA-recorder readout of cleavage of the substrate (dimensionless); higher = more cleavage of the substrate by the protease variant
Conditions: temperature: 34 °C; time window: 0-4 h after rhamnose induction
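Also: Bxb1 expression induced with 0.2% (w/v) L-rhamnose at OD600 near 0.5, cultures sampled hourly, flipped fraction per protease–substrate barcode pair counted by paired-end Illumina sequencing.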

Variant | area with substrate ENLYFQC | area with substrate ENLYFQD | area with substrate ENLYFQF | area with substrate ENLYFQG | area with substrate ENLYFQH | area with substrate ENLYFQI | area with substrate ENLYFQK | area with substrate ENLYFQL | area with substrate ENLYFQM | area with substrate ENLYFQN | area with substrate ENLYFQP | area with substrate ENLYFQR | area with substrate ENLYFQS | area with substrate ENLYFQT | area with substrate ENLYFQV | area with substrate ENLYFQW | area with substrate ENLYFQY | area with substrate ENLYFQQ | area with substrate ENLYFQE
MGESLFKGPRDYNPISSSICHLTNESDGHTTSLYGIGFGPFIITNKHLFRRNNGTLVVQSLHGVFKVKDTTTLQCHLVDGRDMIIIRMPKDFPPFPQKLKFREPQREERICLVTTNFQTKSMSSMVSDTSCTFPSGDGIFWKHWIQTKDGQCGSPLVSTRDGFIVGIHSASNFTNTNNYFTSVPKNFMELLTNQEAQQWVSGWRLNADSVLWGGHKVFMVKPEEPFQPVKEATQL [Q75C] | 0.13 | 0.0693 | 0.087 | 0.137 | 0.0685 | 0.0781 | 0.0606 | 0.0559 | 0.0766 | 0.0611 | 0.0485 | 0.0568 | 0.0978 | 0.0528 | 0.0616 | 0.0617 | 0.064 |  | 
MGESLFKGPRDYNPISSSICHLTNESDGHTTSLYGIGFGPFIITNKHLFRRNNGTLVVQSLHGVFKVKDTTTLQQHLFDGRDMIIIRMPKDFPPFPQKLKFREPQREERICLVTTNFQTKSMSSMVSDTSCTFPSGDGIFWKHWIQTKDGQCGSPLVSTRDGFIVGIHSASNFTNTNNYFTSVPKNFMELLTNQEAQQWVSGWRLNADSVLWGGHKVFMVKPEEPFQPVKEATQL [V78F] | 0.0938 | 0.0495 |  | 0.111 |  | 0.0525 |  |  | 0.0874 | 0.0809 | 0.0406 | 0.0881 | 0.0896 |  |  | 0.0684 | 0 |  | 
MGESLFKGPRDYNPISSSICHLTNESDGHTPSLYGIGFGPFIITNKHLFRRNNGTLVVQSLHGVFKVKDTTTLQQHLVDGRDMIIIRMPKDFPPFPQKLKFREPQREERICLVTTNFQTKSMSSMVSDTSCTFPSGDGIFWKHWIQTKDGQCGSPLVSTRDGFIVGIHSASNFTNTNNYFTSVPKNFMELLTNQEAQQWVSGWRLNADSVLWGGHKVFMVKPEEPFQPVKEATQL [T31P] | 0.0723 |  | 0.0903 | 0.0342 | 0.0569 | 0.059 | 0.0604 | 0.0502 | 0.0561 | 0.0706 | 0.0423 | 0.0644 | 0.064 | 0.0522 | 0.0441 | 0.0631 | 0.0567 |  | 
MGESLFKGPRDYNPISSSICHLTNESDGHTWSLYGIGFGPFIITNKHLFRRNNGTLVVQSLHGVFKVKDTTTLQQHLVDGRDMIIIRMPKDFPPFPQKLKFREPQREERICLVTTNFQTKSMSSMVSDTSCTFPSGDGIFWKHWIQTKDGQCGSPLVSTRDGFIVGIHSASNFTNTNNYFTSVPKNFMELLTNQEAQQWVSGWRLNADSVLWGGHKVFMVKPEEPFQPVKEATQL [T31W] | 0.118 | 0.0563 | 0.0718 | 0.101 | 0.0744 | 0.0689 |  |  | 0.0824 | 0.0879 | 0.0439 | 0.0452 | 0.0925 | 0.0785 | 0.0911 | 0.0654 | 0.0955 |  | 
MGESLFKGPRDYNPISSSICHLTNEKDGHTTSLYGIGFGPFIITNKHLFRRNNGTLVVQSLHGVFKVKDTTTLQQHLVDGRDMIIIRMPKDFPPFPQKLKFREPQREERICLVTTNFQTKSMSSMVSDTSCTFPSGDGIFWKHWIQTKDGQCGSPLVSTRDGFIVGIHSASNFTNTNNYFTSVPKNFMELLTNQEAQQWVSGWRLNADSVLWGGHKVFMVKPEEPFQPVKEATQL [S26K] | 0.0745 | 0.0411 |  | 0.0761 | 0.054 |  | 0.0509 | 0.0546 | 0.0602 | 0.0705 |  | 0.0595 | 0.0709 | 0.0545 | 0.0684 |  | 0.0457 | 0.075 | 
MGESLFKGPRDYNPISSSICHLTNESDGHTTSLYGIGFGPFIIWNKHLFRRNNGTLVVQSLHGVFKVKDTTTLQQHLVDGRDMIIIRMPKDFPPFPQKLKFREPQREERICLVTTNFQTKSMSSMVSDTSCTFPSGDGIFWKHWIQTKDGQCGSPLVSTRDGFIVGIHSASNFTNTNNYFTSVPKNFMELLTNQEAQQWVSGWRLNADSVLWGGHKVFMVKPEEPFQPVKEATQL [T44W] | 0.0454 | 0.0486 |  | 0.076 |  | 0.0458 | 0.0477 | 0.0464 | 0.0631 | 0.0403 | 0.0227 | 0.0416 | 0.0455 | 0.0509 | 0.0612 | 0.0469 |  |  | 
MGESLFKGPRDYNPISSSICHLTNESDGHTTSLYGIGFGPFIITNKLLFRRNNGTLVVQSLHGVFKVKDTTTLQQHLVDGRDMIIIRMPKDFPPFPQKLKFREPQREERICLVTTNFQTKSMSSMVSDTSCTFPSGDGIFWKHWIQTKDGQCGSPLVSTRDGFIVGIHSASNFTNTNNYFTSVPKNFMELLTNQEAQQWVSGWRLNADSVLWGGHKVFMVKPEEPFQPVKEATQL [H47L] | 0.0581 |  |  |  | 0.0624 | 0.0437 | 0.0531 |  | 0.04 | 0.0727 | 0.0495 | 0.0543 | 0.0594 | 0.0546 |  |  | 0.0579 |  | 0.0504
MGESLFKGPRDYNPISSSICHLTNESDGHTTSLYGIGFGPFIITNKHLFDRNNGTLVVQSLHGVFKVKDTTTLQQHLVDGRDMIIIRMPKDFPPFPQKLKFREPQREERICLVTTNFQTKSMSSMVSDTSCTFPSGDGIFWKHWIQTKDGQCGSPLVSTRDGFIVGIHSASNFTNTNNYFTSVPKNFMELLTNQEAQQWVSGWRLNADSVLWGGHKVFMVKPEEPFQPVKEATQL [R50D] | 0.127 | 0.0673 |  | 0.0882 | 0.0844 | 0.0555 |  | 0.0644 | 0.106 | 0.072 |  | 0.0781 | 0.0952 |  |  | 0.0666 | 0.0624 |  | 
MGESLFKGPRDYNPISSSICHLTNESDGRTTSLYGIGFGPFIITNKHLFRRNNGTLVVQSLHGVFKVKDTTTLQQHLVDGRDMIIIRMPKDFPPFPQKLKFREPQREERICLVTTNFQTKSMSSMVSDTSCTFPSGDGIFWKHWIQTKDGQCGSPLVSTRDGFIVGIHSASNFTNTNNYFTSVPKNFMELLTNQEAQQWVSGWRLNADSVLWGGHKVFMVKPEEPFQPVKEATQL [H29R] | 0.073 | 0.0583 | 0.0571 |  | 0.0717 |  | 0.0796 | 0.0558 | 0.077 | 0.0835 | 0.0709 | 0.0728 | 0.0792 | 0.0546 |  | 0.0571 |  | 0.0665 | 
